From PubChem BioAssay AID485294 (National Center for Advancing Translational Sciences (NCATS), 2010)
Out of some 370,000 compounds screened, about 150 (0.041%) were called active. Inconclusive means that the source gave no clear call. Such entries were picked first, then a sample of the others. Calls follow the shape of the dose curve; as a rule, active = well fitted inhibition curve with a large enough effect; inconclusive = small, poorly fitted or top-dose-only effect; inactive = flat fitted curve, though single readings scatter. Potencies of inconclusive entries are left out as doubtful fits.
Also: nearly all actives have a fitted effect of over 25% in size.
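For activity change, negative = inhibition in this document: 0% = no-compound wells and -100% = no-enzyme wells.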
Potency is read from the fitted curve at half-maximal effect; tags tell the direction and shape of the fitted curve.

The molecules below were run against Beta-lactamase (Escherichia coli (strain K12)) (UniProt P00811) (assay: qHTS Inhibitors of AmpC Beta-Lactamase (assay with detergent)). Details: AmpC hydrolysis of nitrocefin, absorbance 480 nm, 0.01% Triton; activity change, negative = inhibition: at 114 µM (top of the series).
UniProt P00811, sequence (P00811 whole entry, looked up): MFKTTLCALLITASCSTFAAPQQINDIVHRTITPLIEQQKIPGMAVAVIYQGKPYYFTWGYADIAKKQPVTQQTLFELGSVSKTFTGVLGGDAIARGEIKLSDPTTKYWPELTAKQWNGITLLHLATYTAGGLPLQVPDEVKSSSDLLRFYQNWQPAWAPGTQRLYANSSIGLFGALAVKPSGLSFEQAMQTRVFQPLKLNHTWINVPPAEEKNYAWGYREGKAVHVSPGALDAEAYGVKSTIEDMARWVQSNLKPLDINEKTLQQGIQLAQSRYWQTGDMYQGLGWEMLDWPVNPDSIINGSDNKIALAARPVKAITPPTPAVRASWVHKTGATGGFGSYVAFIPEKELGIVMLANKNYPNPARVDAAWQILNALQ
Summary of the method: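 20 mM phosphate pH 7.0 + 0.01% (detergent screen) or 0.0001% Triton X-100; 5.3 nM AmpC reagent; cpd preinc 15 min RT; nitrocefin (800 uM stock) to start; A480 q20 s × 4 min; Activity was normalised to no-enzyme and no-compound control wells.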
For `CCN(CC)c1ccc(N=Cc2c(O)n(Cc3ccco3)c(=O)[nH]c2=O)cc1`, the “activity change, negative = inhibition” value was inactive: -4.18%. For `O=C(/C=C/c1ccc2c(c1)OCO2)c1ccccn1`, the “activity change, negative = inhibition” value was inactive: -6.57%. With `CN(CC(=O)Nc1ccc(F)cc1)C(=O)COC(=O)c1cc(S(=O)(=O)N(C)C)ccc1N1CCCC1` the Potency was inconclusive [inhibitor, full curve]. In the case of `COc1ccc(Cl)cc1NC(=O)NCCN1CCCCC1`, the Potency was inconclusive [inhibitor, full curve, poor fit]. With `CN(CC(=O)N1CCN(Cc2ccccc2)CC1)C(=O)Cc1cccc2ccccc12` the “activity change, negative = inhibition” value was inactive: 1.99%. With `CC1=NN(C(=O)Cn2nc([N+](=O)[O-])cc2C)C(O)(C(F)(F)F)C1` (stereo not given) the “activity change, negative = inhibition” value was inactive: 3.6%. For `CCc1ccc2nc(N3CCC(C(=O)N4CCC5(CC4)OCCO5)CC3)sc2c1`, the Potency was inconclusive [inhibitor, single point]. `CC[n+]1ccc2cc(OC)c(OC)cc2c1Cc1ccc(OC)c(OC)c1` was tested, and the “activity change, negative = inhibition” value was inactive: -6.45%. `COc1cc(CNn2cnnc2)ccc1OCC(=O)NC(C)(C)C` was tested, and the Potency was inconclusive [inhibitor, single point]. For `CN1CCC(N(C)C(=O)c2cccc(S(=O)(=O)N3CCOCC3)c2)CC1`, the Potency was inconclusive [inhibitor, full curve, poor fit]. With `O=c1[nH]c(/C=C\c2cccc(Cl)c2)nc(O)c1[N+](=O)[O-]` the Potency was inconclusive [inhibitor, partial curve, poor fit]. With `COc1ccc(-c2cc(C(F)(F)F)nc(SCC(=O)NCCc3ccccc3)n2)cc1OC` the “activity change, negative = inhibition” value was inactive: 18.2%. For `Cc1c(C(=O)NCCSCc2c(Cl)cccc2Cl)cccc1[N+](=O)[O-]`, the “activity change, negative = inhibition” value was inactive: 0.401%. In the case of `COc1cc(C(C)=O)ccc1OCC(O)CNCC1(N2CCCCC2)CCCCC1` (stereo not given), the Potency was inconclusive [inhibitor, full curve, poor fit]. With `O=C(NCc1ccccc1)C1CCN(S(=O)(=O)c2cc([N+](=O)[O-])ccc2Cl)CC1` the Potency was inconclusive [inhibitor, full curve]. `COc1ccccc1C(=O)NCCC(=O)N1CCCCC1` was tested, and the “activity change, negative = inhibition” value was inactive: 1.8%. `COc1ccc(NC(=O)CN(C)S(=O)(=O)c2ccc3c(c2)OCCO3)c2ncccc12` was tested, and the Potency was inconclusive [inhibitor, full curve, poor fit]. With `CCOc1ccc(NC(=O)C2CCN(c3nnc(-n4c(C)ccc4C)s3)CC2)cc1` the “activity change, negative = inhibition” value was inactive: -2.42%. For `CC(C)c1ccc(CNc2ccc(N3CCOCC3)cc2)cc1`, the Potency was inconclusive [inhibitor, partial curve]. `COc1cc(C)c(S(=O)(=O)N2CCCC2)cc1C` was tested, and the Potency was inconclusive [inhibitor, single point]. In the case of `C=CCn1c(=O)c2ccccc2n2c(SCc3nc(N)nc(Nc4ccccc4C)n3)nnc12`, the Potency was inconclusive [inhibitor, full curve]. For `Nc1nc(CSCc2ccccc2)nc(N2CCOCC2)n1`, the “activity change, negative = inhibition” value was inactive: -3.2%. For `O=C(CSc1nc2ccccc2o1)c1ccc2c(c1)OCCO2`, the “activity change, negative = inhibition” value was inactive: -1.86%. With `CN(C)[C@@H]1C(=O)C(C(N)=O)=C(O)[C@@]2(O)C(=O)C3=C(O)c4c(O)ccc(Cl)c4[C@@H](O)[C@H]3C[C@@H]12` the Potency was inconclusive [inhibitor, full curve]. In the case of `Cc1ccc(S(=O)(=O)C(C)C(=O)c2ccc3c(c2)OCCO3)cc1` (stereo not given), the Potency was inconclusive [inhibitor, full curve, poor fit]. `Cc1cc(NC(=O)CSc2nc(=O)n3cc(Cl)ccc3n2)no1` was tested, and the Potency was inconclusive [inhibitor, full curve, poor fit]. In the case of `Cc1cccc(C(=O)Oc2ccc3ccc(O)cc3c2)c1`, the Potency was inconclusive [inhibitor, full curve, poor fit]. `COc1ccc(OC)c2[nH]c(=O)c(CCNC(=O)C(C)C)cc12` was tested, and the Potency was inconclusive [inhibitor, partial curve, poor fit]. For `S=C(c1ccc(-c2ccc(Cl)cc2)o1)N1CCCCC1`, the Potency was inconclusive [inhibitor, full curve]. `COc1ccc(-c2oc(NC(C)=O)c(C#N)c2-c2ccc(OC)cc2)cc1` was tested, and the Potency was inconclusive [inhibitor, full curve]. With `C=CCn1c2ccccc2c2nnc(SCC(=O)O)nc21` the Potency was inconclusive [inhibitor, full curve, poor fit]. In the case of `COc1ccc2cc(S(=O)(=O)N3CCCCC3)ccc2c1S(=O)(=O)N1CCCCC1`, the Potency was inconclusive [inhibitor, partial curve]. In the case of `Cc1cccnc1NC(=S)Nc1ccc(Cl)c(Cl)c1`, the “activity change, negative = inhibition” value was inactive: 2.44%. In the case of `N#CCCn1cc(C(=O)N2CCCCC2)c(-c2ccc([N+](=O)[O-])cc2)n1`, the Potency was inconclusive [inhibitor, full curve, poor fit]. `O=S(=O)(c1ccc(Cl)cc1Br)N1CCCCC1` was tested, and the Potency was inconclusive [inhibitor, full curve]. `COCCn1c(SCC(=O)NCc2ccco2)nnc1-c1c[nH]c2ccccc12` was tested, and the Potency was inconclusive [inhibitor, full curve, poor fit]. For `C=CCn1c(COc2ccc(Cl)cc2)nnc1SCC(=O)N/N=C/c1cccc(O)c1`, the Potency was inconclusive [inhibitor, partial curve]. In the case of `Cc1ccc2nc(Nc3ccccc3)c(/C=N/O)c(=O)n2c1`, the Potency was inconclusive [inhibitor, partial curve]. For `CCNC(=O)CN(C1CCCCC1)S(=O)(=O)c1ccc(F)cc1`, the Potency was inconclusive [inhibitor, full curve, poor fit]. `CCN(CC)C(=O)Cn1cc(SCC(=O)NC)c2ccccc21` was tested, and the “activity change, negative = inhibition” value was inactive: 1.1%. For `O=C(Nc1ccccc1Br)c1ccc2nccnc2c1`, the “activity change, negative = inhibition” value was inactive: -12.4%. For `C=CCN=C1NN=C(c2cc(C)n(CC=C)c2C)CS1`, the “activity change, negative = inhibition” value was inactive: -2.01%. For `COc1cc(/C=C/C(=O)c2c(O)n(CCc3ccccc3)c(=O)[nH]c2=O)ccc1O`, the “activity change, negative = inhibition” value was inactive: -12%. For `CCOC(=O)C(=NC1CCS(=O)(=O)C1)NNc1ccc(Br)cc1` (stereo not given), the Potency was inconclusive [inhibitor, full curve]. With `Cc1ccc(N=C(NOC(=O)c2ccccc2)c2nonc2N)c(C)c1` the Potency was inconclusive [inhibitor, single point]. `CCOC(=O)c1c(CN2CCCCC2)n(C)c2cc(Br)c(O)c(CN(C)C)c12` was tested, and the “activity change, negative = inhibition” value was inactive: -16%. For `O=C(CC1CCCCC1)N1CCCC(c2nc(-c3ccc(S(=O)(=O)N4CCCC4)cc3)no2)C1` (stereo not given), the “activity change, negative = inhibition” value was inactive: 2.63%. `CC(=O)NC(c1cc(Cl)c2cccnc2c1O)C1CC1` (stereo not given) was tested, and the Potency was “inactive”. For `CCOC(=O)c1cnc(Cc2ccccc2)[nH]c1=O`, the Potency was inconclusive [inhibitor, full curve]. For `Cn1c(=O)c2cc(S(=O)(=O)NC(C(=O)Nc3cccnc3)c3ccccc3)ccc2n(C)c1=O` (stereo not given), the Potency was inconclusive [inhibitor, full curve, poor fit]. In the case of `COc1ccc(CC(NC(C)=O)C(=O)NC2CCN(c3c4c(nc5ncnn35)CCC4)CC2)cc1` (stereo not given), the Potency was inconclusive [inhibitor, full curve, poor fit]. In the case of `CCN(CC(=O)Nc1cc(Cl)ccc1C)c1ncnc2sc(C)c(C)c12`, the Potency was inconclusive [inhibitor, partial curve, poor fit]. In the case of `CCOc1ccccc1CN1CCC(O)CC1`, the “activity change, negative = inhibition” value was inactive: -2.37%. `CC1(C)CC2(CCO1)N1CC3(C)CN2CC(C)(C1)C3O` (stereo not given) was tested, and the Potency was inconclusive [inhibitor, full curve, poor fit]. `CC(C#Cc1ccc2c(c1)COc1c3ccccc3nn1-2)OC(C)(C)C` (stereo not given) was tested, and the Potency was inconclusive [inhibitor, full curve]. In the case of `COc1ccc(OC)c(CCNC(=O)C(C)n2nc(C)c3c(C)n(-c4ccccc4)nc3c2=O)c1` (stereo not given), the “activity change, negative = inhibition” value was inactive: -1.75%. In the case of `Nn1cnnc1N/N=C\c1ccc(-c2ccccc2[N+](=O)[O-])o1`, the “activity change, negative = inhibition” value was inactive: -10.8%. In the case of `O=C(Cc1cccs1)N/N=C/c1ccco1`, the Potency was inconclusive [inhibitor, full curve, poor fit]. `COc1ccc(-c2cc(C(F)(F)F)n3nc(C(=O)Nc4ccccc4SC)cc3n2)cc1OC` was tested, and the “activity change, negative = inhibition” value was inactive: 12.8%. `CCCCN1C(=O)NC(NS(=O)(=O)c2ccc(N)cc2)(C(F)(F)F)C1=O` (stereo not given) was tested, and the Potency was inconclusive [inhibitor, full curve]. In the case of `Cc1cccc(-c2nc3c(c(SCC(=O)N4CCOCC4)n2)CCCC3)c1`, the Potency was inconclusive [inhibitor, full curve, poor fit]. For `Cc1ccc(CCN2CC(C(=O)NCCCN3CCOCC3)CC2=O)cc1` (stereo not given), the “activity change, negative = inhibition” value was inactive: -1.03%. In the case of `COc1cc(OC)c(NC(=O)Cn2c(=O)oc3cc(S(=O)(=O)N4CCCC4)ccc32)cc1Cl`, the “activity change, negative = inhibition” value was inactive: 3.45%. With `Cc1cccc(C(=O)Nc2ncc(CN3CCOCC3)s2)c1` the Potency was inconclusive [inhibitor, full curve, poor fit]. With `CCN(CC)S(=O)(=O)c1ccc(C(=O)Nc2ccc(OCC(=O)N3CCOCC3)cc2)cc1` the Potency was inconclusive [inhibitor, full curve, poor fit]. In the case of `CCOC(=O)C1CCN(c2nc3cc(OC)ccc3cc2C#N)CC1`, the Potency was inconclusive [inhibitor, partial curve]. In the case of `O=C1COc2ccc(S(=O)(=O)N3CCN(c4cccc(C(F)(F)F)c4)CC3)cc2N1`, the “activity change, negative = inhibition” value was inactive: -1.18%. With `CC(C)C(=O)Nc1ccc([N+](=O)[O-])c(C(F)(F)F)c1` the Potency was inconclusive [inhibitor, full curve, poor fit]. `O=C(NCCc1ccc(Cl)cc1)C1CCN(S(=O)(=O)N2CCC3(CC2)OCCO3)CC1` was tested, and the “activity change, negative = inhibition” value was inactive: -2.43%. In the case of `Cc1nn(-c2ccccc2)c(Cl)c1/C=C/C(=O)c1ccccc1`, the Potency was inconclusive [inhibitor, full curve].
